The RNAGym collection of RNA variant scans (doi:10.7554/elife.90254)
Read counts are not given, so values of variants with three or more changes are uncertain.

B1: LINE1-full (parent)
chain: UACGUAGGUGGUUUUCCCCUGAUAGUGCUAAGGGGGCCUGGAAGUUUGGACUGGGCAGAGCUCAACACAGCGUGGCAAAGUGGCUGUGGCUAGACUGCCUCUCUGGAUUCCUCGUCACUCAGCAGGGCAUCUCUGAGAGAAAUGCC

Variants of: B1
Test: self-cleavage, relative activity (ratio to wild type); higher = more cleavage; in vitro, sequencing; the parent is a self-cleaving ribozyme

Variant | self-cleavage
UACGUAGGUGGUUUUCCCCUGAUAGUGCUAAGGGGGCCUGGAGGUUUGGACUGGGCAGAGCUCAACACAGCGAGGCAAAGUGGCUGUGGCAAGACUGCCUCUCUGGAUUCCUCGUCACUCAGCAGGGCAUCUCUGAGAGAAAUGCC [A43G U73A U91A] | 1.07
UACGUAGGUGGUUUUCCCCUGAUAGUGCUAAGGGGGCCUGGAGGUUUGGACUGGGCAGAGCUCAACACAGCGUGGCAAAGAGGCUGUGGCUAGGCUGCCACUCUGGAUUCCUCAUCACUCAGCAGGGCAUCUCUGAGAGAAAUGCC [A43G U81A A94G U100A G114A] | 0.2
UACGUAGGUGGUUUUCCCCUGAUAGUGCUAAGGGGGCCUGGAGGUUUGGACUGGGCAGAGCCCAACACUGCGUGGCAAAGUGGCUGUGGCUAGACAGCCUCUCUGGAUCCCUCGUCACUCAGCAGGGCAUCUCUGAGAGAAACGCC [A43G U62C A69U U96A U109C U143C] | 0
UACGUAGGUGGUUUUCCCCUGAUAGUGCUAAGGGGGCCUGGAGGUCUGGACUGGGCAGAGCUCAACACAGCGUGGCAAAGUGGCUGUGGCUAGACUGCCUCUCUGGAUCCCUCGUCACUCAGCAGGGCAUCUCUGAGAGAAAUGCC [A43G U46C U109C] | 0.59
UACGUAGGUGGUUUUCCCCUGAUAGUGCUAAGGGGGCCUGGAGGUUUGGACUGGGCAGAGCUCAACACAGCGAGGCAAAGUGGCUGUGGCUAGUCUGCCUCUCAGGAUUCCUCGUCACUCAGCAGGGCAUCUCUGAGAGAAAUGCC [A43G U73A A94U U104A] | 0.22
UACGUAGGUGGUUUUCCCCUGAUAGUGCUAAGGGGGCCUGGAGGUUAGGACUGGGCAGAGCUCAACACAGCGUGGCAAAGUGGCUGUGGCUAGACUGCCUCUCUGGAUUCCUCGUCACUCAGCAGGGCGUCUCUGAGAGAAGUGCC [A43G U47A A129G A142G] | 0.53
UACGUAGGUGGUUUUCCCCUGAUAGUGCUAAGGGGGCCUGGAGGUUUGGACUGGGCAGAGCUCAACACAGCGUGGCAAAGUGGCUGUGGCUAGACUGCCUCUCUGGAUUCCUCGUCACUCAGCAAGGCGUCUCUGAGAGAAAUGCC [A43G G125A A129G] | 1.31
UACGUAGGUGGUUUUCCCCUGAUAGUGCUAAGGGGGCCUGGAGGUUUGGACUGGGCAGAGCUCAACACAGCGUGGCAAAGUGGCAGUAGCUAGACUGCCUCUCUGGAUUCCUCGUCACUCAGCAGGGCAUCUCUGAGAGAAAUGCC [A43G U85A G88A] | 0.05
UACGUAGGUGGUUUUCCCCUGAUAGUGCUAAGGGGGCCUGGAGGUUAGGACUGGGCAGAGCUCAACACAGCGUGGCAAAGUGGCGGUGGCUAGACUGCCUCUCUGGAUUCCUCGUCACUCAGCAGGGCAUCUCUGAGAGAAAUGCC [A43G U47A U85G] | 0.2
UACGUAGGUGGUUUUCCCCUGAUAGUGCUAAGGGGGCCUGGAGGUUCGGACUAGGCAGAGCUCAACACAGCGUGGCAAAGUGGCUGUGGCUAGACUGCCUCUCUGGAUUCCUCGUCACUCAGCAGGGCAUCUCUGGGAGAAAUGCC [A43G U47C G53A A136G] | 1.45
UACGUAGGUGGUUUUCCCCUGAUAGUGCUAAGGGGGCCUGGAGGUUUGGACUGGGCAGAGCUCAACACAGCGUGGUAAAGUGGCUGUGGCUAGACUGCCUCUCUGGAUACCUCGUCACUCAGCAGGGCAACUCUGAGAGAAAUGCC [A43G C76U U109A U130A] | 2.42
UACGUAGGUGGUUUUCCCCUGAUAGUGCUAAGGGGGCCUGGAGGAUUGGACUGGGCAGAGCUCAACACAGCGUGGCAAAGUGGCUGUGGCUAGACUGCCUCUCUGGAUUCCUCGUCACUCAGCAGGGCAUCUCUGAUAGAAAUGCC [A43G U45A G137U] | 1.06
UACGUAGGUGGUUUUCCCCUGAUAGUGCUAAGGGGGCCUGGAGGUUCGGACUGGGCAGAGCUCAACACAGCGUGGCAAAGUGGCUGUGGCUAGACUGCCUCUCUGGACUCCUCGUCACUCAGCAGGGCAUCUCUGAGAGAAAUGCC [A43G U47C U108C] | 0
UACGUAGGUGGUUUUCCCCUGAUAGUGCUAAGGGGGCCUGGAGGUAUGAUCUGGGCAGAGCUCAACACAGCGUGGCAAAGUGGCUGUGGCUAGACUGCCUCUCUGGAUUCCUCGUCACUCAGCGGGGCAUCCCUGAGAGAAAUGCC [A43G U46A G49A A50U A124G U132C] | 0.31
UACGUAGGUGGUUUUCCCCUGAUAGUGCUAAGGGGGCCUGGAGGUUUGGACUGGGCAGAGCUCAACACAGCGUGGCAAAGUGGCUGUGGCUAGACUGCCUCUCUAGAUUCCUCGUCGCUCAGCAGGGCAUCUCUGGGAGAAAUGCC [A43G G105A A117G A136G] | 1.22
UACGUAGGUGGUUUUCCCCUGAUAGUGCUAAGGGGGCCUGGAGGUUUGGACUGGGCAAAGCUCAACACAGCGUGACAAAGUGGCUGUGGCUAGACCGCCUCUCUGGAUUCCUCGUCACUCAGCAGGGCAUCUCUGAGAGAAAUGCC [A43G G58A G75A U96C] | 0
UACGUAGGUGGUUUUCCCCUGAUAGUGCUAAGGGGGCCUGGAGGUUUGGACUGGGCAGAGCUCAACACAGCGUGGCAAAGUGGCUGUGGCUAGACUGCCUCUCUGGAUUCCUCGUCACUCAGGGGGGCAUCUCUGAGGGAAAUGCC [A43G C123G A124G A138G] | 0.92
UACGUAGGUGGUUUUCCCCUGAUAGUGCUAAGGGGGCCUGGAGGUUUAGACUGGGCAGAGCUCAACACAGCGUGGCAAAGAGGCUGUGGCUAGACUGCCUCUCUGGAUUCCUCGUCACUCAGCAGGGCAUCUCUGAGAGAGAUGCC [A43G G48A U81A A141G] | 1.96
UACGUAGGUGGUUUUCCCCUGAUAGUGCUAAGGGGGCCUGGAGGUUUGGACUAGGCAGAGCUCAACACAGCGUGGCAAAGUGGCUGUGGCUAGACUGCCUCUCUGGAUUCCUCGCCACUCGGCAGGGCAUCUCUGAGAGAAAUGCC [A43G G53A U115C A121G] | 1.92
UACGUAGGUGGUUUUCCCCUGAUAGUGCUAAGGGGGCCUGGAGGUUUGGACAGGGCAGAGCUCAACACAGCGUGGCAAAGUGGCUGUGGCUAGACUGCCUCUCUGGAUUCCUCGUCGCUCAGCAGGGCAUCUCUGAGAGAAAUGCC [A43G U52A A117G] | 1.2

Variant | self-cleavage
UACGUAGGUGGUUUUCCCCUGAUAGUGCUAAGGGGGCCUGGAGGUUUGGACAGGGCAGAGCUCAACACAGCGUGGCAAAGUGGCUGUGGCUGGACUGCCUCUCGGGAUUCCUCGUCACUCAGCAGGGCAUCUCUGAGAGAAACGCC [A43G U52A A92G U104G U143C] | 0
UACGUAGGUGGUUUUCCCCUGAUAGUGCUAAGGGGGCCUGGAGGUUUGGACCGGGCAGAGCUCAACACAGCGUGGCAGAGUGGCUGUGGCUAGACUGCCUCUCUGGAUUCCUCGUCACUCAGCAGGGCAUCUCUGAGAGAAAUGCC [A43G U52C A78G] | 0.9
UACGUAGGUGGUUUUCCCCUGAUAGUGCUAAGGGGGCCUGGAGGGUUGGACUGGGCAGAGCUCGACACAGCGUGGCAAAGUGGCUGUAGCUAGACUGCCUCUCUGGAUUCCUCGUCGCUCAGCAGGGCAUCUCUGAGAGAAAUGCC [A43G U45G A64G G88A A117G] | 0
UACGUAGGUGGUUUUCCCCUGAUAGUGCUAAGGGGGCCUGGAGGUUUGGACUGGGCAGAGCUUAACACAGCGUGGCAAAGUGGCUGUGGCUAGACUGCCCCUCUGGAUUCCUCGUCACUCAGCAGGGCAUCUCUGAGAGAAAUGCC [A43G C63U U100C] | 0.69
UACGUAGGUGGUUUUCCCCUGAUAGUGCUAAGGGGGCCUGGAGGUUAGGACUGGGCAGAGCUCAACACGGCGUGGCAAAGUGGCUGUGGCUAGACUGCCACUCUGGAUUCCUCGUCACUCAGCAGGGCAUCUCUGAGAGAAAUGCC [A43G U47A A69G U100A] | 0.08
UACGUAGGUGGUUUUCCCCUGAUAGUGCUAAGGGGGCCUGGAGGUUUGGACUGGGCAGAGCUCAACACAGCGUGGCAAAGUGGCUGUGGCUAGACUACCUCUCUGGAUUCCUCGUCACGCAGCAGGGCAUCUCUGAGAGAAAUGCC [A43G G97A U119G] | 0.06
UACGUAGGUGGUUUUCCCCUGAUAGUGCUAAGGGGGCCUGGAGGUUUGGACUGGGCAGAGCUCAAUACAGCGUGGCAAAGUGGCUGUGGCUAGACCGCCUCUCUGGAUUCCUCGUCACUCAGCAGGGCAUCUCUGAGAGAAAUGCC [A43G C66U U96C] | 0.08
UACGUAGGUGGUUUUCCCCUGAUAGUGCUAAGGGGGCCUGGAGGUUUGGACUGGGCAGAGCUCAACACAGCGUGGCAAAGUGGCUGUGGCUAGACUGCCUCUCUGGAUUCCUCGUCACUCAUCAGGGCACCUCUGAGAGAAAUGCC [A43G G122U U130C] | 1.25
UACGUAGGUGGUUUUCCCCUGAUAGUGCUAAGGGGGCCUGGAGGUUUGGACAGGGCAGUGCUCGACACAGCGUGGCAAAGUGGCUGUGGCUAGACUGCCUCUCUGGAUUCCUCGUCACUCAGCAGGGCAUCUCUGAGAGAAAUGCC [A43G U52A A59U A64G] | 0.17
UACGUAGGUGGUUUUCCCCUGAUAGUGCUAAGGGGGCCUGGAGGUCUGGACUGGGCAGAGCUCAACACAGCGUGGCAAAGUGGCAGUGGCUAGACUGCCUCUCUGGAUUCCUCGUCACUCAGCAGGGCAUCUCUGAGAUAAAUGCC [A43G U46C U85A G139U] | 0.37
UACGUAGGUGGUUUUCCCCUGAUAGUGCUAAGGGGGCCUGGAGGUUUGGACUGGGCAAAGCUCAACACAGCGUGGCAAGGUGGCUGUGGCUAGACUGCCUCUCUGGAUUCCUCGUCACUCAGCAGGGCAUCUCUGAGAGAAGUGCC [A43G G58A A79G A142G] | 0
UACGUAGGUGGUUUUCCCCUGAUAGUGCUAAGGGGGCCUGGAGGUUUGGACUGGGCAGAGCUCAACACAGCGUGACAAAGUGGCUGUGGCUAGCCUGCCUCUCUGGAUUCCUCGUCACUCAGCAGGGCAUCUCUGAGAGAAAUGCC [A43G G75A A94C] | 0.05
UACGUAGGUGGUUUUCCCCUGAUAGUGCUAAGGGGGCCUGGAGGUUUGGACCGGGCAGAGCUCUACACAGCGUGGCAAAGUGGCUGUGGCUAGACUGCCUCUCUGGAUUCCUCGUCACUCAGCAGGGCAUCUCUGAGAGAAAUGCC [A43G U52C A64U] | 0.65
UACGUAGGUGGUUUUCCCCUGAUAGUGCUAAGGGGGCCUGGAGGUUUGGACCGGGCAGAGCUCAACACAGCGUGGCAAAGUGGCUGUGGCUAGACUGCCUCUCUGGAUUCCUCGUCACUCAGCAGGGCAUCUCUGAGAGAAACGCC [A43G U52C U143C] | 0.92
UACGUAGGUGGUUUUCCCCUGAUAGUGCUAAGGGGGCCUGGAGGUUUGGACUGGGCAGAGCUUAACACAGCGUGGCAUAGUGGCUGUGGCUAGACUGCCUCUCUGGAUUCCUCGUCACUCAGCAGGGCAUCUCUGAGAGAAAUGCC [A43G C63U A78U] | 0.49
UACGUAGGUGGUUUUCCCCUGAUAGUGCUAAGGGGGCCUGGAGGUUUGGACUAGGCAGAGCUCAACACAGCGUGGCAAAGUGGCUGUGGCUAGACUGCCUCUCUGGAUUCCUCGCCACUCAGCAGGGCAUCUCUGAGAGAAAUGCC [A43G G53A U115C] | 1.6
UACGUAGGUGGUUUUCCCCUGAUAGUGCUAAGGGGGCCUGGAGGUUUAGACUGGGCAGAGCUCAACACAGCGUGGCAAAGUGGCUGUGGCUGGACUGCCUCUCUGGAUUCCUUGUCACUCAGCCGGGCAUCUCUGAGAGAAAUGCC [A43G G48A A92G C113U A124C] | 0.1
UACGUAGGUGGUUUUCCCCUGAUAGUGCUAAGGGGGCCUGGAGGUUUGGACUGGGCAGAGCUCAACACAGCGUGGCAAAGUAGCUGUGGCUAGACUGCCUCUCUGGAUUCCUCGUCACUCAGCAGGGCAUCUCUGUGAGAAAUGCC [A43G G82A A136U] | 0.95
UACGUAGGUGGUUUUCCCCUGAUAGUGCUAAGGGGGCCUGGAGGUUAGGACUGGGCAGAGCUCAACACAGCGUGGCAAAGUGGCUGUGGCUAGACUGCCUCUCUGGAUUCCUCGUCACUCAGCAGGGCAUCUCUGGGAGGAAUGCC [A43G U47A A136G A140G] | 0
